From PubChem BioAssay AID504832 (National Center for Advancing Translational Sciences (NCATS), 2011)
Among all 310,000 compounds or so, about 18,000 (5.8%) were called active. The inconclusive results got no clear call from the source; some entries with a clear call stand among them for comparison. The call rests on the fitted dose curve; in most records, active means well fitted inhibition curve with a large enough effect; inconclusive means small, poorly fitted or top-dose-only effect, or another doubt; inactive means no such curve, though single readings can be large or run the other way. Potencies of inconclusive entries are left out as doubtful fits.

assay: Primary qHTS for delayed death inhibitors of the malarial parasite plastid, 48 hour incubation; conditions: P. falciparum luciferase growth in erythrocytes; series mostly up to 28.7 µM
Method in brief: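 Cell-based growth assay: transgenic P. falciparum expressing firefly luciferase, cultured in red cells within RPMI 1640 containing 0.5% w/v Albumax, 24 mM bicarbonate and gentamycin. A drop in luciferase activity indicates inhibition.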
On the % scale 0 is the no-effect control and ±100 the full control effect; potency means the concentration at half of the fitted maximal effect; tags describe the fitted curve by direction and shape.

SMILES	Potency	activity change, negative = inhibition
COc1ccc(C2NC(=S)NC(C)=C2C(=O)N2CCOCC2)cc1 (stereo not drawn)	inactive	
Cc1ccc(S(=O)(=O)/N=C2/C=C(C3C(=O)CC(C)(C)CC3=O)C(=O)c3ccccc32)cc1	inconclusive [inhibitor, single point]	
CC1CCN(C(=O)Cn2ncc3c4ccccc4n(C)c3c2=O)CC1	inactive	
COc1cc(/C=N/n2c(C)nc3ccccc3c2=O)ccc1O	inactive	
CC(C)CCNC(=O)c1c[nH]c2ccc(S(=O)(=O)N3CCC4(CC3)OCCO4)cc2c1=O	inconclusive [inhibitor, single point]	
Cc1cccc(CSc2nnc([C@@H]3CCCN3C(=O)OC(C)(C)C)o2)c1	inconclusive [inhibitor, single point]	
O=C(C1CC(=O)N(c2ccc3c(c2)OCCO3)C1)N1CCN(c2cccc(C(F)(F)F)c2)CC1 (stereo not drawn)	inconclusive [inhibitor, single point]	
CCC(C)N1C(=O)S/C(=C/c2ccc(Sc3nc4ccccc4[nH]3)o2)C1=O (stereo not drawn)	inconclusive [inhibitor, partial curve, poor fit]	
CCc1[nH]nc(C(=O)N2CCCC(CO)(Cc3ccc(F)cc3F)C2)c1C (stereo not drawn)	inconclusive [inhibitor, single point]	
CCOC(=O)CC(=O)CSc1ccc2nnc(-c3ccc(F)cc3)n2n1	inconclusive [inhibitor, single point]	
CCOC(=O)[C@H]1[C@H]2COc3ccc(C)cc3[C@@H]2N2C(=O)c3cc(Cl)ccc3NC(=O)[C@@]12C	inconclusive [inhibitor, single point]	
CCN(CC)c1ccc(S(=O)(=O)N2CCOCC2)cc1NC(=O)CN1C(=O)NC2(CCC(C)CC2)C1=O (stereo not drawn)	inconclusive [inhibitor, partial curve]	
O=C(COc1ccc([N+](=O)[O-])cc1)Nc1ccc(NC(=O)c2ccccc2)cc1	inactive	
COc1ccc(CC(=O)NCCC2=CCCCC2)cc1	inactive	
CC12CCC(=O)N1C(C(=O)Nc1cc(C(F)(F)F)ccc1N1CCOCC1)CS2 (stereo not drawn)	inconclusive [inhibitor, single point]	
CCC(C)NC(=O)CSc1nc2n[nH]c(C)c2c(=N)n1-c1ccc(OC)cc1 (stereo not drawn)	inconclusive [inhibitor, single point]	
COc1cc(/C=C(\NC(=O)c2ccccc2)C(=O)Nc2nccs2)ccc1OC(C)=O		inactive: -0.233% [at 0.00184 µM]
COc1cccc(CNCC(O)COc2ccc(C(=O)c3ccccc3)cc2)c1 (stereo not drawn)	inactive	
